This is an account of results in PubChem BioAssay AID463173 (ICCB-Longwood Screening Facility, Harvard Medical School, 2010).

Screen size: about 52,000 compounds; about 1,700 (3.3%) were called active. No stated cut-off is given here; in the data, active means survival mostly below about 52% (no sharp cut-off); inactive means mostly above about 56%. Some of the results follow.

The subject of the assay is Wild type. As to the kind of experiment: growth inhibition of S. aureus wild type versus tarO mutant, primary screen, teichoic acid synthesis inhibitors, RN4220, OD600 (AID 463173). Conditions: S. aureus RN4220 wild type/DeltatarO growth, OD600, 18 h, active compounds read low, screened at 18.75 µg/mL (by protocol).
Consider `Cc1ccc(/C=C(\C#N)c2nc(-c3ccc(-c4ccccc4)cc3)cs2)cc1`, for which the survival was inactive: 83%.
With `COc1ccc(OC)c(C(=O)CC2(O)C(=O)N(Cc3ccccc3C)c3ccccc32)c1` (stereo unspecified) the figure was inactive: 118%.
For the molecule `CCOc1ccccc1CNC(=O)CCc1c(C)nn(-c2ccc(N3CCCC3)nn2)c1C`, the survival was inactive: 71%.
With `CCN1C=CC2=C(C#N)C(N)C(C#N)(C#N)C(c3cccs3)C2C1` (stereo unspecified) the figure was inactive: 99%.
Take `COc1ccccc1CNC(=O)Cn1c(=O)nc(-c2ccccc2F)c2cc(Cl)ccc21`: the survival was inactive: 73%.
With `COC(=O)c1ccc(Cl)cc1NC(=O)NCCc1c(C)nn(C)c1C` the figure was inactive: 55%; with `Cc1c(C(=O)N2CCOCC2)oc2c1-c1nn(CC(=O)NCc3cccc(F)c3)cc1CC2`, inactive: 108%; with `CC(C)c1ccc(NC(=O)Cn2c(=O)n(CC3CCC(C(=O)NCCc4ccccc4)CC3)c(=O)c3ccccc32)cc1` (stereo unspecified), inactive: 71%.
The figure for `CC(C)(C)C1CCc2c(sc(NC(=O)Cn3nnc(-c4ccccc4Cl)n3)c2C#N)C1` (stereo unspecified) is inactive: 78%; for `COc1ccc(-n2ccnc2SCC(=O)Nc2ccc3c(c2)OCO3)cc1` it is inactive: 119%; for `Cc1ccc(CNc2ccc(-c3nc(-c4ccncc4)no3)cc2[N+](=O)[O-])cc1` it is inactive: 87%.
With `Cc1cccc(N2CCN(C(=O)CS(=O)(=O)c3cccc4nsnc34)CC2)c1C` the figure was inactive: 153%; with `CCOC(=O)c1c(C)[nH]c(C)c1S(=O)(=O)N1CCC(C(=O)Nc2cc(C)ccn2)CC1`, inactive: 60%; with `Cc1ccc(Cl)cc1N1CCN(C(=O)C2CCC(CNS(=O)(=O)c3cccs3)CC2)CC1` (stereo unspecified), inactive: 60%.
Turning to `Cc1ccc2nc(COc3ccccc3NC(=O)COc3ccc(F)cc3)cc(=O)n2c1`, the survival was inactive: 124%.
The figure for `CCc1ccccc1NS(=O)(=O)c1ccc2[nH]cc(C(=O)N(CC(C)C)CC(C)C)c(=O)c2c1` is inactive: 71%.
As to `Cc1ccc(-c2nc(S(=O)(=O)c3ccccc3)c(N3CCN(c4ccccc4)CC3)o2)cc1`, the survival was inactive: 117%.
On to `CCc1ccccc1N(CC)C(=O)c1c(C)oc2ncn(C)c(=O)c12`, for which the survival is inactive: 71%.
With `COc1ccccc1N1CCN(C(=O)c2cc(CC(C)C)on2)CC1` the figure was inactive: 82%; with `O=C(Nc1ccc(S(=O)(=O)N2CCOCC2)cc1)c1cnccn1`, inactive: 104%.
The figure for `CCCn1c(=O)/c(=C2/C=Cc3ccccc3N2C)s/c1=C1\SC(=S)NC1=O` is inactive: 105%; for `COc1ccc(-c2nc(SCC(=O)Nc3ccc4c(c3)OCCO4)c(-c3ccc(F)cc3)[nH]2)cc1` it is inactive: 90%.
Consider `Cc1cccc(C(C)C)c1NC(=O)Cn1c(=O)oc2cc(S(=O)(=O)N3CCCC3)ccc21`, for which the survival is inactive: 84%.
With `O=C(Nc1ccccc1C(=O)OCc1cc(=O)n2c3c(sc2n1)CCCC3)c1ccc(F)cc1` the figure was inactive: 124%; with `C=CCc1c(C)[nH]c2ccccc2c1=O`, inactive: 102%; with `COc1ccc(NC(=O)C2CCN(S(=O)(=O)c3ccc4c(c3)CCCC(=O)N4)CC2)cc1OC`, inactive: 76%.
With `CCc1ccc2nc(N(CCN(CC)CC)C(=O)c3cccs3)sc2c1` the figure was inactive: 75%.
With `CCCc1noc2c1C1=NNC(=O)C1C(C)(C)C2` (stereo unspecified) the figure was inactive: 104%; with `COc1cccc(C(=O)Nc2nc3nc(-c4ccccc4)cc(=O)n3[nH]2)c1`, inactive: 89%; with `C=CCNc1nc(N)c(C(=C(C#N)C#N)c2ccccc2)s1`, inactive: 113%.
Regarding `CCOC(=O)c1c(-c2ccc(C)cc2)csc1NC(=O)c1cc(=O)c2cc(C)ccc2o1`, the survival is inactive: 80%.
The figure for `O=C(Cn1c(=O)nc(-c2ccccc2)c2ccccc21)NCCc1ccccc1` is inactive: 71%; for `O=C1c2oc3ccccc3c(=O)c2C(c2cccc(O)c2)N1c1nncs1` (stereo unspecified) it is inactive: 89%.
The figure for `COc1cccc(CNC(=O)C2=C(C)C(=O)OC23CCN(C(C)=O)CC3)c1OC` is inactive: 74%; for `CC(C)=C1C2C=CC1C1C(=O)N(CCO)C(=O)C21` (stereo unspecified) it is inactive: 101%.
With `COc1ccc(-c2oc3ncn4nc(COc5cccc(C)c5C)nc4c3c2-c2ccc(OC)cc2)cc1`, the survival was inactive: 77%.
With `COc1cc(Nc2nc(SCc3ccc(Cl)cc3)nc3ccccc23)cc(OC)c1` the figure was inactive: 81%; with `CC(=O)c1ccc(NC(=O)CN2C(=O)CN(C)C(=O)c3ccccc32)cc1`, inactive: 87%; with `Cc1cccc(CNC(=O)c2ccc(N3Cc4ccccc4Oc4ncccc43)s2)c1`, inactive: 69%.
The figure for `COc1cccc(C(=O)N2CCC(C(=O)Nc3cccc(Cl)c3)CC2)c1` is inactive: 78%.
The figure for `CN(C)c1cccc(C(=O)N2CCC(c3c[nH]c4ccccc34)(c3c[nH]c4ccccc34)CC2)c1` is inactive: 67%; for `O=C(O)C1=NN(c2ccccc2)C(=O)C1` it is inactive: 113%; for `CCC(C(=O)NCc1cc(OC)ccc1OC)n1nc(C)c2sc3ccccc3c2c1=O` (stereo unspecified) it is inactive: 87%.
As for `COc1cc(C(=O)Nc2ccc(NC(=O)c3ccc(C(C)(C)C)cc3)cc2)cc(OC)c1OC`, the survival was inactive: 154%.
`O=C(COCc1cc(-c2cccs2)on1)N1CCN(c2ccccc2)CC1`: the survival is inactive: 68%.
The figure for `CCC1Oc2ccc(C)cc2N(CC(=O)N(Cc2ccc3c(c2)OCO3)CC2CCCO2)C1=O` (stereo unspecified) is inactive: 107%; for `CC(C)c1ccc(N2C(=O)CSC23C(=O)N(Cc2cccc(F)c2)c2ccccc23)cc1` (stereo unspecified) it is inactive: 83%.
With `COc1ccccc1C(=O)Nc1ccc2nc(SCCOc3ccccc3C)sc2c1` the figure was inactive: 93%.
Turning to `C=C(C)C1Cc2cc(/C=C/C(=O)O)c(O)cc2O1` (stereo unspecified), the survival was inactive: 83%.
The figure for `Fc1ccc(NCc2nnc3n2CCCCC3)cc1Cl` is inactive: 66%; for `COc1ccc(OC)c(CNC(=O)C2CCCN(c3ncnc4onc(-c5ccc(F)cc5)c34)C2)c1` (stereo unspecified) it is inactive: 73%; for `CCC(=O)c1ccc(N2CCCC2)c(F)c1` it is inactive: 110%.
In the case of `O=C(Cn1c(=O)oc2cc(S(=O)(=O)NCc3ccccc3)ccc21)Nc1cccc(F)c1`, the survival was inactive: 93%.
The figure for `COC(=O)c1ccc(C2Nc3c(C)cccc3-c3cc(C)nn32)cc1` (stereo unspecified) is active: -4%; for `CC(Oc1ccc(/C=C(/C#N)C(=O)N2CCOCC2)cc1)C(=O)O` (stereo unspecified) it is inactive: 104%.
With `COc1ccccc1CNc1nc2c(S(=O)(=O)c3ccc(C)c(C)c3)nnn2c2ccc(Cl)cc12` the figure was inactive: 98%.
